Measured values: PubChem BioAssay AID1347073 (National Center for Advancing Translational Sciences (NCATS), 2019)
The campaign covered roughly 45,000 compounds. About 200 (0.44%) were called active. Not shown: some 7% with an inconclusive outcome. Calls come from the whole dose curve; as a rule, active = well fitted activation curve with a large enough effect; inconclusive = small, poorly fitted or top-dose-only effect; inactive = no such curve, though single readings can be large or run the other way. The list shows a part of the results.

assay: qHTS of TDP-43 Inhibitors: NCGC Sytravon Library Screen; conditions: yeast TDP-43 toxicity rescue, BacTiter-Glo growth, 24 h; series mostly up to 46.1 µM; growth rescue (activation): at the top concentration; note: 0% is about no effect; nearly all actives have a fitted effect of over 55% in size
How it was run: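 TDP-43-expressing yeast, pregrown in raffinose, seeded at OD600 0.02 in galactose medium with compound for 24 hr at 30 deg C. Growth read by BacTiter-Glo luminescence, so rescue of toxicity appears as activation.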

| Structure (SMILES) | growth rescue (activation) |
| --- | --- |
| CC(=O)N1CCc2cc(Br)cc(S(=O)(=O)NCc3ccc(Cl)cc3)c21 | inactive: 16.5% |
| CCC(CO)NC1=CC(=O)CCC1 (stereo not given) | inactive: -4.26% |
| COc1cccc(C(=O)N(Cc2ccc(C)o2)C2CCS(=O)(=O)C2)c1 (stereo not given) | inactive: 6.06% |
| CSc1ccccc1NC(=O)CN(C)C(=O)COc1ncnc2ccccc12 | inactive: 25.3% |
| COC(=O)[C@@H](NC(=O)NCCC1=CCCCC1)C(C)C | inactive: -8.46% |
| CC(C)Oc1ccc(F)cc1-c1cc(C(=O)NCc2cc(C(F)(F)F)cc(C(F)(F)F)c2)[nH]n1 | inactive: -0.303% |
| Cc1nnsc1NC(=O)OCc1ccc(C(F)(F)F)cc1 | inactive: 7.48% |
| O=C(Cc1ccccc1)NNS(=O)(=O)c1ccccc1[N+](=O)[O-] | inactive: 2.85% |
| CCCCOc1ccc(C(=O)NCC(=O)NC2CC2)cc1 | inactive: 22.2% |
| COc1ccc(NC(=S)N2CCC(N(C)CC3CCCO3)CC2)cc1 (stereo not given) | inactive: -0.628% |
| O=C(Nc1cccc2ccccc12)N1CCN(c2ccc(F)cc2)CC1 | inactive: 0.003% |
| CN(C)c1cc(Nc2cccc(O)c2)c([N+](=O)[O-])c2nonc12 | inactive: -5.55% |
| O=C(/C=C/c1cccs1)N1CCCCC1 | inactive: -8.02% |
| Cc1cccc(N(C(=O)Cn2nnc(-c3ccc(F)cc3)n2)C(C(=O)NC(C)(C)C)c2ccncc2)c1 (stereo not given) | inactive: -14.1% |
| Cc1nc(NCc2cccnc2)c2c3c(sc2n1)CC(C)CC3 (stereo not given) | inactive: 2.36% |
| COc1ccc(S(=O)(=O)N(C)C)cc1NC(=O)CSc1nc(N)cc(N)n1 | inactive: 12.3% |
| COCCCNCC#CCOc1ccc(OC)cc1 | inactive: 4.91% |
| CCc1ccccc1N(CC(=O)NCc1ccco1)C(=O)CCC(=O)Nc1ccccn1 | inactive: 9.03% |
| OC[C@@H]1CN(CCN2CCOCC2)C[C@H](n2cnc3c(NC4CC4)ncnc32)O1 | inactive: -16.2% |
| COc1cc(NC(=O)c2cc(C)no2)cc(OC)c1OC | inactive: 4.47% |
| OC1(c2ccc(Cl)c(Cl)c2)C[n+]2ccccc2N1Cc1ccccc1 (stereo not given) | inactive: -27% |
| COc1ccc(S(=O)(=O)c2cnc3ccccc3n2)cc1 | inactive: 18% |
| Cc1cccc(NC(=S)NC(=O)/C=C/c2ccccc2)n1 | inactive: 1.61% |
| Cc1cccc(C)c1NC(=O)CNC(=O)c1c(C)nn(C)c1Cl | inactive: 3.57% |

| Structure (SMILES) | growth rescue (activation) |
| --- | --- |
| Cc1ccccc1CN1CCNC(=O)C1CC(=O)NCCN1CCCCC1=O (stereo not given) | inactive: 15.6% |
| COc1ccccc1-c1noc(-c2ccccc2C(=O)NCc2ccco2)n1 | inactive: 4.32% |
| O=C(Cc1nnc(NC(=O)Nc2ccc(F)cc2)s1)NCc1ccccc1 | inactive: 4.65% |
| NS(=O)(=O)c1ccc(NC(=O)COC(=O)CCCN2C(=O)c3cccc4cccc(c34)C2=O)cc1 | inactive: -6.49% |
| CCS(=O)(=O)N1CCC(C(=O)NCc2ccc3c(c2)OCO3)CC1 | inactive: 3.02% |
| Cc1[nH]c2ccccc2c1/C=N/NC(=O)C1CC1(c1ccccc1)c1ccccc1 (stereo not given) | inactive: -12% |
| CN(C)C(=O)CSc1ccc(S(=O)(=O)N2CCCC2)cn1 | inactive: 21.2% |
| CC(C)C(=O)Nc1sc2c(c1-c1nc3ccccc3[nH]1)CCCC2 | inactive: 6.9% |
| COc1cc(NC(=S)NN2CCOCC2)cc(OC)c1 | inactive: 18.8% |
| CC(C)COC(=O)N1CCCC(c2cc(C(=O)Nc3ccccc3Cl)no2)C1 (stereo not given) | inactive: 24.2% |
| COc1ccc(/C=N/NC(=O)c2cc(C)oc2C)cc1OC | inactive: 5.05% |
| NC(=O)c1ccsc1NC(=O)CSc1nnc2ccccn12 | inactive: -4.57% |
| Cc1ccc(OCc2cccc(S(=O)(=O)N(C)C)c2)c([N+](=O)[O-])n1 | inactive: 21.2% |
| COC(=O)CC1C(=O)NC2CCCCC2N1C(=O)CCl (stereo not given) | inactive: 2.16% |
| Cc1nc(C(=O)O)nn1-c1cc(Cl)ccc1Cl | inactive: 0.0992% |
| CC(C)CC1=C/C(=C/c2ccc(-c3ccccc3)o2)C(=O)O1 | inactive: 2.87% |
| COc1ccc(OC)c(NC(=O)CSc2ncnc3sc(C)cc23)c1 | inactive: -1.18% |
| CCOC(=O)N1CCN(c2ccc([N+](=O)[O-])cc2)CC1 | inactive: 19.1% |
| CC(C)Oc1cccc(C(=O)NC(=S)Nc2cccc(NC(=O)c3ccccc3Cl)c2)c1 | inactive: 4.69% |
| CCNc1nc(SC(C(C)=O)C(C)=O)nc(N(C)C)n1 | inactive: 18.7% |
| NS(=O)(=O)c1ccc(NC(=O)c2cc(Cl)ccc2Cl)cc1 | inactive: -26.2% |
| O=c1[nH]c(=S)[nH]c2c1C(c1ccc(Br)cc1)c1c([nH]c(=S)[nH]c1=O)O2 | inactive: -12.6% |
| COc1ccccc1-c1noc(CCCC(=O)NC2CCCCC2)n1 | inactive: -9.19% |
| Cc1ccc(S(=O)(=O)N2CCCCC2)cc1NC(=O)CSc1nnnn1C | inactive: -26% |

| Structure (SMILES) | growth rescue (activation) |
| --- | --- |
| COc1ccc(CNC(=O)c2ccc(Cn3nc(C)c([N+](=O)[O-])c3C)o2)cc1 | inactive: 6.01% |
| CCOC(=O)C1(C)CCN1C(=O)c1cc(F)ccc1C (stereo not given) | inactive: 11.1% |
| CC(=O)N1CCN(C(=O)C2(NC(=O)Nc3ccccc3Cl)CCCCC2)CC1 | inactive: 10.3% |
| Nc1ccc2nc(Cc3ccccc3)[nH]c2c1 | inactive: -7.78% |
| NNc1nc2sc3c(c2c(=O)n1-c1ccccc1)CCCC3 | inactive: 2.22% |
| CCOc1cccc(-c2cc(N3CCN(CCO)CC3)n3nccc3n2)c1 | inactive: 7.01% |
| CCOc1ccc(S(=O)(=O)N(CC)CC(=O)NCc2ccncc2)cc1 | inactive: -2.5% |
| COc1ccc(N(CC(=O)NCCSc2ccccc2)S(C)(=O)=O)cc1 | inactive: 6.9% |
| CCC(=O)N1c2ccc(C)cc2C2=NNC(=S)NC21O (stereo not given) | inactive: 12.5% |
| CN(C)S(=O)(=O)c1cccc(NC(=O)COC(=O)/C=C/c2ccco2)c1 | inactive: -16.9% |
| Cn1c(Nc2ccc(F)cc2)nc2cc(-c3ccsc3)sc2c1=O | inactive: 24.2% |
| CCOc1ccc(S(=O)(=O)NCc2ccc(OC)cc2)c2cccnc12 | inactive: -15.7% |
| COc1ccc(CN2CCNC(=O)C2CC(=O)N(Cc2nccn2C)C(C)C)c(OC)c1 (stereo not given) | inactive: -2.21% |
| CC(C)C(=O)N1CCC1(C)C(=O)NCc1cc(Cl)ccc1F (stereo not given) | inactive: -6.1% |
| Cc1ccc(S(=O)(=O)NN=C2C3CC4CC(C3)CC2C4)cc1[N+](=O)[O-] | inactive: 14.7% |
| N#CCSc1ccc(S(=O)(=O)N2CCOCC2)cn1 | inactive: 9.75% |
| Oc1[nH]c2ccccc2c1N=Nc1ccc(F)cc1 | inactive: 19.4% |
| O=C(COC(=O)/C=C/c1ccc(S(=O)(=O)N2CCOCC2)cc1)Nc1ccc(F)c(F)c1F | inactive: 4.61% |
| Cc1ccc([C@@H]2C[C@H]3CN(Cc4cccc(Cl)c4)C(=O)[C@]34CCCN24)o1 | inactive: 3.7% |
| COc1ccccc1N1C(=S)N=C(Nc2c(C)cccc2C)C12CCCC2 | inactive: 17.8% |
| Cc1cc(C)c(S(=O)(=O)Nn2cnnc2)c(C)c1 | inactive: 13.6% |
| COc1ccc(NC(=O)c2[nH]c(C)c(C(C)=O)c2C)cc1S(=O)(=O)Nc1ccc(Br)cc1 | inactive: -5.65% |
